Results reported in paper PMC4336329 (PLoS ONE, 2015).
Hit rate of the full screen: of about 310,000 compounds, about 14,000 (4.5%) showed an effect of 50% or more. Effects have a minus sign here. Some of the results follow.

What follows are compounds tested against human ether-à-go-go-related gene (hERG) potassium channel (human, UniProt Q12809) (assay: primary screen, population patch clamp on CHO cells stably expressing hERG).
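Also: peak tail current of the secondary pulse compared with the same well before compound.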

Chain of human ether-à-go-go-related gene (hERG) potassium channel (Q12809 whole entry, looked up): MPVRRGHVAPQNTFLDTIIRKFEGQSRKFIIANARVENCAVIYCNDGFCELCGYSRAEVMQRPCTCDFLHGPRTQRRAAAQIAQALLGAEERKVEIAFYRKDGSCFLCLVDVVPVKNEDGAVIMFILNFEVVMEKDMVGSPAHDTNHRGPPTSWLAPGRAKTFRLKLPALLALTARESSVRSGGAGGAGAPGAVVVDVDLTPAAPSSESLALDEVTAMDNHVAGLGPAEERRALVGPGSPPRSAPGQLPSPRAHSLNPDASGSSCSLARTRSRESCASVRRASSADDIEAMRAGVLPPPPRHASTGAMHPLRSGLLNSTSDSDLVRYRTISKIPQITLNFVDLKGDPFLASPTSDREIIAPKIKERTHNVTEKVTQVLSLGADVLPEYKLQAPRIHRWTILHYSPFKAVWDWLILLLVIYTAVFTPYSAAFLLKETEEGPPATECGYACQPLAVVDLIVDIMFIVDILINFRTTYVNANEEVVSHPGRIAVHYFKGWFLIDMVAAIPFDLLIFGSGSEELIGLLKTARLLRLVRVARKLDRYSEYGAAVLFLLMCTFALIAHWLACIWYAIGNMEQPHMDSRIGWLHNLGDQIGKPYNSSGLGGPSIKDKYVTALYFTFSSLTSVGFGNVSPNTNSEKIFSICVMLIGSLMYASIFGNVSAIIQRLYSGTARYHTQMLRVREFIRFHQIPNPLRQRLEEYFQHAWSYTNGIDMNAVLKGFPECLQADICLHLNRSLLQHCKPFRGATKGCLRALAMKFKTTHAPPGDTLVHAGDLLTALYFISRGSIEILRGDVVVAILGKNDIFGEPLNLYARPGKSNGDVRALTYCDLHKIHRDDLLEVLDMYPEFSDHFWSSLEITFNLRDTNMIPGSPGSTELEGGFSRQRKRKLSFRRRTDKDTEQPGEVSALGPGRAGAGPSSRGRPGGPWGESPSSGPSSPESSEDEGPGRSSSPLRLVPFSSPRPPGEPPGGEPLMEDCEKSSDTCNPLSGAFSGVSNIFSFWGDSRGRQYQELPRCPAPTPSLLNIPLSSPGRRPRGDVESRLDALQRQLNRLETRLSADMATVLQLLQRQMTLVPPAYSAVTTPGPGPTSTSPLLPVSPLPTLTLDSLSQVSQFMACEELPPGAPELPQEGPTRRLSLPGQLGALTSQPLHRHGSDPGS

SMILES	hERG current change (%, negative = inhibition) at 10uM
CC1=C(C(=O)OC2CCCCC2)C(c2ccc(C)o2)C2=C(CCCC2=O)N1 (stereo not drawn)	-0.762%
CSc1nnnn1-c1cccc(O)c1	-6.74%
N#C/C(=C\c1ccc(O)c(O)c1)C(=O)Nc1ccccc1	6.48%
O=C1Nc2ccc(S(=O)(=O)N3CCCC3)c3cccc1c23	-7.57%
Cc1ccc(-n2cc3c(-c4cccc(Br)c4)nnc(C)c3n2)cc1	-33.7%
CCSc1ncnc2c1oc1ccccc12	19.4%
CCNc1nc(Oc2ccc(F)cc2)cc(C(F)(F)F)n1	6.58%
O=C(c1ccsc1)N1CCN(C(=O)c2cccs2)CC1	-24.1%
CCOC(=O)N1CCN(S(=O)(=O)c2ccc(Br)cc2)CC1	0.125%
Cc1ccc(NC(=O)CCN2C(=O)CSC2=O)c(C)c1	29.4%
CCn1cc(C(=O)N2CCc3ccccc3C2)c(=O)c2cc(S(=O)(=O)N3CCCCC3)ccc21	-40.7%
COc1ccc(NS(=O)(=O)c2cccc3cccnc23)cc1	12.5%
CCN(CC)C(=O)CSc1ncnc2c1cnn2Cc1ccccc1	-19.9%
CCCn1ncc([C@@H]2C[C@H]3CN(Cc4cccc(Cl)c4)C(=O)[C@]34CCCN24)c1C	-43.6%
CC(=O)c1c(O)n(C2CCCCCC2)c(=O)[nH]c1=O	17.5%
Cc1noc(C)c1CSCC(=O)N(C)CC(=O)Nc1ccc(F)c(F)c1F	1.07%
COc1cccc(CN2C(=NC(=O)CCC3CCCC3)SC3CS(=O)(=O)CC32)c1 (stereo not drawn)	7.4%
COc1ccc2cc3cc(C(=O)NCCN4CCN(Cc5ccccc5)CC4)oc3nc2c1	-71.8%
Oc1ccc(/C=N/NC(=S)NC2CC3CCC2C3)cc1 (stereo not drawn)	14.9%
CC(C)(C)[C@@H]1C=C(C(=O)N2CCN(Cc3ccccc3)CC2)O[C@H](OCCCCO)C1	2.51%
COc1ccccc1OCC(=O)N1CC2(C)CC1CC(C)(C)C2 (stereo not drawn)	-5.26%
CCc1nc2ccc(C(=O)NCCc3ccccc3OC)cc2nc1CC	-39.3%
CN1CCN(/C=C2\SC(=S)NC2=O)CC1	11.6%

SMILES	hERG current change (%, negative = inhibition) at 10uM
O=C(N/N=C\c1ccccc1)c1cccc(C(=O)N/N=C\c2ccccc2)n1	4.57%
COc1ccc(CNc2ccc3c(c2)nc(C)n3C)cc1	-31.9%
CCOC(=O)c1ccc(NC(=O)CSc2ccc(-c3ccccn3)nn2)cc1	2.83%
CCOc1ccc(N(CC(=O)NCc2ccccc2)S(=O)(=O)c2c(C)noc2C)cc1	-5.02%
Cc1nccn1CCC(=O)O.Cl	0.257%
CC(O)[C@H]1CNC(=O)C(=O)N1CCCCC1CCCCC1 (stereo partly drawn)	15.5%
Cl.NC1=NC(c2cccc(Cl)c2)N(CCc2ccc(F)cc2)C(N)=N1 (stereo not drawn)	15.6%
CCOC(=O)N1CCN(CC(=O)Nc2nc3ccccc3s2)CC1	-35.5%
CCOC(=O)C1C(=O)OC(C)(C)C1C(C)C(=O)c1ccc(C)cc1 (stereo not drawn)	-0.432%
NS(=O)(=O)c1ccc(CCNC(=O)[C@@H]2CCCN2S(=O)(=O)c2ccccc2F)cc1	-2.88%
C=CCNC(=O)COC(=O)c1cc(S(=O)(=O)N2CCCCC2)ccc1Cl	-12.4%
CCCCCCCCCCCCN1[C@@H](CC(=O)OC)c2cc(F)ccc2S1(=O)=O	10.9%
CN(CCOc1ccccc1)CCOc1ccccc1	-26.3%
CC(C)Oc1ccc(NC(=O)Oc2ccccc2)cc1	-7.54%
Cc1ccc(Sc2ccc(/C=N/O)cc2[N+](=O)[O-])cc1	9.89%
COc1ccccc1NCC(=O)N/N=C(\C)c1ccc(Br)s1	-0.262%
Cc1cccnc1NC(=S)NC(=O)/C=C/c1ccccc1	-5.1%
Cn1c(CN2CCCCC2)nc2cc([N+](=O)[O-])ccc21	-0.791%
CCCS(=O)(=O)n1nc(-c2ccccc2)cc1N	0.509%
CCOc1ccc(C(=O)NC2CCN(CC(=O)NCc3ccccc3)CC2)cc1	-29.3%
CCC(C)NC(=S)NNC(=O)c1ccc(C(C)(C)C)cc1 (stereo not drawn)	19.2%
O=C(NC1CCCC1)C(c1ccncc1)N(Cc1ccccc1)C(=O)c1ccc(-c2ccccc2)[nH]1 (stereo not drawn)	-4.27%
COc1ccccc1-c1noc(CCC(=O)Nc2cccc(C)c2)n1	-4.2%

SMILES	hERG current change (%, negative = inhibition) at 10uM
O=C(COC(=O)Cn1cnc2ccccc2c1=O)NCCC1=CCCCC1	-16.9%
Cc1cc(=O)oc2cc(NC(=O)CCC(=O)O)ccc12	3.98%
O=C(CCN1CCN(c2ccccc2)CC1)Nc1cccc(Br)c1	-61.4%
Fc1cnc(Cl)nc1N1CCN(c2ccccc2)CC1	-17.4%
COc1ccc(-n2c3c(cc(C(=O)N4CCC(C)CC4)c2=O)C(=O)CC(C)(C)C3)cc1	-2.69%
COc1cccc(-c2nn(C)c3sc(C(=O)N4CCN(c5ccccn5)CC4)cc23)c1	-5.96%
O=C1NC(=O)C(=Cc2cc(Cl)ccc2OCc2ccc(C(=O)O)cc2)C(=O)N1	6.01%
CC(=O)OC1N=C(c2ccccc2Cl)c2cc(Br)ccc2N(C)C1=O (stereo not drawn)	-12.4%
CCc1n[nH]c(=S)n1/N=C/c1cc(OC)cc([N+](=O)[O-])c1O	1.77%
O=C(c1ccc(Oc2ccccc2)cc1)c1nc2c(n1O)CCCC2	10.6%
C/C(=N\NC(=S)NCc1ccccc1)c1cccs1	-26.8%
CNC(=O)N(C1=NCC(C)(C)S1)c1ccc(F)c(Cl)c1	16.2%
CC(C)Nc1nnc(SC(C)C(=O)Nc2ccc(Cl)cn2)s1 (stereo not drawn)	-1.61%
CCOc1ccc(N2C(=O)C3CC(C)=C(C)CC3C2=O)c([N+](=O)[O-])c1 (stereo not drawn)	-24.8%
C/C(=N/Nc1ccc(F)cc1)c1ccc(Cl)s1	8.69%
COc1ccc(OC)c(/C=C/C(=O)N(C)CC(=O)Nc2cc(C)ccc2C)c1	-15.1%
C=C(C)c1cccc(C(C)(C)NC(=O)NCC2COCCO2)c1 (stereo not drawn)	15%
O=C(CC1SCCNC1=O)Nc1ccc(Cl)c(Cl)c1 (stereo not drawn)	-4.35%
Cc1ccccc1CN1CCc2cc([N+](=O)[O-])ccc21	19.1%
O=C(Nc1cccc(C(=O)O)c1)/C(=C\c1ccc(F)cc1)NC(=O)c1ccco1	6.5%
CCOc1ccc(Cc2n[nH]c(=S)n2N)cc1	21.3%
Cc1ccc(CNC(=O)C2CCN(S(=O)(=O)N3CC(C)CC(C)C3)CC2)cc1 (stereo not drawn)	15%
CC(OC(=O)C1CCCC1)C(=O)Nc1ccc(S(N)(=O)=O)cc1 (stereo not drawn)	8.98%

SMILES	hERG current change (%, negative = inhibition) at 10uM
O=[N+]([O-])c1ccc(Nc2ccccc2)c2nonc12	-8.36%
COc1cccc2cc(C(=O)Nc3ccccc3C(=O)N3CCOCC3)oc12	-21.3%
CC1CCCCC1NC(=O)c1ccc(N2CCCC2=O)cc1 (stereo not drawn)	-3.85%
Cc1c(S(=O)(=O)N(C)C2CCCCC2)c(=O)n(C)c(=O)n1C	-3.42%
CCc1ccccc1N(CC(=O)NC1CCCCC1)C(=O)CNC(=O)c1ccco1	2.14%
Cc1nc2ncnn2c(N2CCN(S(=O)(=O)c3ccc(Br)cc3)CC2)c1C	-20.7%
Cc1cccc(-c2nnc(SCC#N)n2-c2cccc(Cl)c2)c1	-62.5%
O=C(COc1ccc(Cl)cc1)N1CCN(C(=O)c2ccccc2F)CC1	-44.8%
Cn1nc(C(F)(F)F)c2cc(NC(=O)OCc3ccc(F)cc3)sc21	1.74%
O=C(CCN1C(=O)c2ccccc2C1=O)Nc1ccc(-c2nc3ccccc3o2)cc1	12%
Cc1ccc(N2C(=O)NC(=O)/C(=C/c3cnc(-c4ccccc4)nc3)C2=O)cc1C	18.1%
COc1ccccc1CCC(=O)Nc1ccc(OC)c(S(=O)(=O)N2CCCCC2)c1	-28.5%
Cc1nn(-c2ccccc2)c(Cl)c1C(=O)N1CCN(C)CC1	18.8%
Cc1nc2c(sc(=S)n2Cc2ccco2)c(=O)n1CC(=O)Nc1ccc(F)cc1	7.01%
C[C@@H]([C@@H](O)c1ccccc1)N(C)C(=O)C(N)Cc1ccccc1 (stereo partly drawn)	4.16%
CCN1CCN(C(=O)COCc2cc(-c3ccc4c(c3)OCO4)on2)CC1	-4.57%
Cn1ncc(Cl)c1C(=O)Nc1cc(C(F)(F)F)ccc1F	29.5%
COc1ccc(/C=N/NC(=O)c2c(C)n(C)c3ccc(OC)cc23)c(OC)c1	-14.3%
O=C(Nc1ccon1)c1ccc2c(c1)OCO2	8.3%
COc1ccccc1CNC(=O)[C@H](C)NC(=O)C1CCN(C(=O)[C@@H](N)C(C)C)CC1	7.21%
N#Cc1ccccc1S(=O)(=O)N1CCN(C(=O)CN2CCCSc3ccccc32)CC1	-38.7%
